No constants are given. Whether binding was seen depends on the method and setting. Binding seen in cells or lysates may run through a third protein. Some results given as binding are weak or reduced against the parent protein; the word gives no strength.
Target: HA-NEU1 (neuraminidase 1) (UniProt Q99519)
Assay: co-IP; HEK293T cells transfected with HA-NEU1 and Flag-tagged receptor plasmids; lysis in 25 mM Tris-HCl pH 7.4, 150 mM NaCl, 1% NP-40, 1 mM EDTA, 5% glycerol; Flag-tag or HA-tag antibody on Protein A/G magnetic beads; western blot

Sequences of proteins named here, by UniProt entry; tags and fusion partners are left off. Residues count along the entry.
UniProt Q13705, residues 19-512: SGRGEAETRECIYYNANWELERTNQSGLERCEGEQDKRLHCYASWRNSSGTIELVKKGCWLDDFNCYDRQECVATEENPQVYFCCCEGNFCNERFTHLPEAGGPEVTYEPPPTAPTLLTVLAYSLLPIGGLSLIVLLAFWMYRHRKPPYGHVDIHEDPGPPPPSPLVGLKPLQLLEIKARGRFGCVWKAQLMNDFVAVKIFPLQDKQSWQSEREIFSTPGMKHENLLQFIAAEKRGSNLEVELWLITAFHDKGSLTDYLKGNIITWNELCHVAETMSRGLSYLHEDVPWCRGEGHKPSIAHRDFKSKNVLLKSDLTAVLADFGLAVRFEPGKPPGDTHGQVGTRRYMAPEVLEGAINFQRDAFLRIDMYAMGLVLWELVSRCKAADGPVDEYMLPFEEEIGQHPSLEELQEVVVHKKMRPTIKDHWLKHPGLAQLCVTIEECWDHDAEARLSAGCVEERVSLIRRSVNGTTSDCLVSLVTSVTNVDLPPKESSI
UniProt P36894, residues 24-532: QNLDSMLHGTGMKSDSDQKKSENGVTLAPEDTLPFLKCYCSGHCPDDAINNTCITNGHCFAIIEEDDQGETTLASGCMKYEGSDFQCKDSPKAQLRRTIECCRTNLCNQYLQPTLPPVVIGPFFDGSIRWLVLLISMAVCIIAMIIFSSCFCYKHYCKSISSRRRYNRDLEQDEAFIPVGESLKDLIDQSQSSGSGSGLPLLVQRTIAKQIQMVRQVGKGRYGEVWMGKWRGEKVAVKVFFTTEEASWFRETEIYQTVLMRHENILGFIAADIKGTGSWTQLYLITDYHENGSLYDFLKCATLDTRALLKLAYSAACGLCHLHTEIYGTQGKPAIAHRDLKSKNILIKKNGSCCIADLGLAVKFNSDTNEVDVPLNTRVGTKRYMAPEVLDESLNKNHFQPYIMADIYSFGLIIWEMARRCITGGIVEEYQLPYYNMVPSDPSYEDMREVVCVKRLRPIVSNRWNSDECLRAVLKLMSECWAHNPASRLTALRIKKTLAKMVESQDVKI
UniProt O00238, residues 14-502: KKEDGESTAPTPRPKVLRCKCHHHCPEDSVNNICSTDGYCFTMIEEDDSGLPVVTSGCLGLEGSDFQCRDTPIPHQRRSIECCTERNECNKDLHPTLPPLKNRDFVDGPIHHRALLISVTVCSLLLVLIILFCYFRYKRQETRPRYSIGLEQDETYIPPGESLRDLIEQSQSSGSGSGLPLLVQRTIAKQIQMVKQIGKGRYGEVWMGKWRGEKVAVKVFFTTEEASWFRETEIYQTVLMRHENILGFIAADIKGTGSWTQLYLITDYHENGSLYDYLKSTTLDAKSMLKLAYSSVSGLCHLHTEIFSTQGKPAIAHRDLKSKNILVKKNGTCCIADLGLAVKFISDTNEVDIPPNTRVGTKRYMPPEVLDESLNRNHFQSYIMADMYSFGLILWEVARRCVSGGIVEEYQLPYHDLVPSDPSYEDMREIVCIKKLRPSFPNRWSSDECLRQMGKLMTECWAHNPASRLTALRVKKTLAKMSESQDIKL
UniProt P37173, residues 23-567: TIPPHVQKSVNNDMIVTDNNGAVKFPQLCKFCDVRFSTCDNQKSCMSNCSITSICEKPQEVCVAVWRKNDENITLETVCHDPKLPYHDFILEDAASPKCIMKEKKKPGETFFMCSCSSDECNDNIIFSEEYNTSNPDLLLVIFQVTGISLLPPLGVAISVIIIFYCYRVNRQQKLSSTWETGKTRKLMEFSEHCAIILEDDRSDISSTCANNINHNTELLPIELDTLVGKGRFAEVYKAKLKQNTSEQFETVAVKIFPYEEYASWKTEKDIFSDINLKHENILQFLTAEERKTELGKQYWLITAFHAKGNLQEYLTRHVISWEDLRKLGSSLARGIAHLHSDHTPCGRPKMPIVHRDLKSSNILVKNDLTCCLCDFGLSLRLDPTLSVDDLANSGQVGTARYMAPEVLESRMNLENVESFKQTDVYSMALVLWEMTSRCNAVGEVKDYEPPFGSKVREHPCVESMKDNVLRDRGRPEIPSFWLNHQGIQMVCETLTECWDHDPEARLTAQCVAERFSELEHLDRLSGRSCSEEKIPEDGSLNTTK

Flag-ACVR2B (from UniProt Q13705 19-512) (receptor)
binding: binds

Flag-ALK1 (from UniProt P37023 22-503) (receptor)
binding: binds

Flag-ALK3 (from UniProt P36894 24-532) (receptor)
binding: no binding

Flag-ALK6 (from UniProt O00238 14-502) (receptor)
binding: no binding

Flag-TGFBR2 (from UniProt P37173 23-567) (receptor)
binding: no binding

Reference: paper PMC10043283, “Neuraminidase 1 promotes renal fibrosis development in male mice” (Nature Communications, 2023)
